Laboratory results published in the supplement of paper PMC10369915.
Some of the results follow. Cut-off read from the data, not from the text of the source: active = 3.2 or more and inactive = the rest. Most of these values are background signal.

Legend:
Experiment in all cases: enrichment score (SH2-bound / input frequency) (ratio); bacterial display of known human phosphotyrosine sites (pTyr-Var adds point mutants) read by sequencing; higher = stronger binding; tyrosines were phosphorylated by kinases first
Conditions in all cases: peptide library: pTyr-Var
[1] = target: SHP2 C-SH2 domain E139D
[2] = target: SHP2 C-SH2 domain wild-type
[3] = target: SHP2 N-SH2 domain L43F
[4] = target: SHP2 N-SH2 domain T42A
[5] = target: SHP2 N-SH2 domain T52S
[6] = target: SHP2 N-SH2 domain wild-type

Measured: enrichment score
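Note: displayed peptides selected on beads carrying the immobilized SH2 domain, with library peptides lacking any tyrosine serving as negative controls.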

EREFKYGAHNF [OAT_Y50_YF]
inactive: [1] 0.862 | [2] 0.736 | [3] 0.637 | [4] 0.612 | [5] 0.69 | [6] 0.728

EAEPFYRSLRD [NPHS1_Y1139_YF]
inactive: [1] 0.564 | [2] 0.501 | [3] 0.489 | [4] 0.479 | [5] 0.601 | [6] 0.635

MSFDRYMAVCH [OR2A5_Y123_I126V_YF]
inactive: [1] 0.923 | [2] 1.04 | [3] 0.832 | [4] 1.02 | [5] 0.732 | [6] 1.28

KGKLIYLLGDS [NXPE1_Y350]
inactive: [1] 2.4 | [2] 2 | [3] 2.28 | [4] 2.04 | [5] 2.03 | [6] 2.11

CNSFQYGGGGG [NPPA_Y151_R150Q]
inactive: [1] 0.948 | [2] 0.718 | [3] 0.556 | [4] 0.543 | [5] 0.609 | [6] 0.825

DFLSSYSAVNE [OAT_Y85_Q90E]
inactive: [1] 0.903 | [2] 1.06 | [3] 0.824 | [4] 0.809 | [5] 0.886 | [6] 0.957

SLNAVYPRAGS [OAS3_Y376]
inactive: [1] 0.698 | [2] 0.594 | [3] 0.748 | [4] 0.629 | [5] 0.649 | [6] 0.651

FGAHNYHPLPV [OAT_Y55_YF]
inactive: [1] 1.11 | [2] 0.913 | [3] 0.903 | [4] 0.817 | [5] 1.11 | [6] 0.974

PESTLYRKFTT [NTRK1_Y701_I699T]
inactive: [1] 0.48 | [2] 0.458 | [3] 0.456 | [4] 0.481 | [5] 0.878 | [6] 0.398

AQQPIYIRVEG [NLRP7_Y318_V319I]
inactive: [1] 1.03 | [2] 0.969 | [3] 1.14 | [4] 1.48 | [5] 1.12 | [6] 1.07

YGAHNHHPLPV [OAT_Y55_Y55H]
active: [1] 3.5 | [3] 3.28 | [5] 3.24
inactive: [2] 3.19 | [4] 2.68 | [6] 2.6

FSTDCYRVGGH [NTRK2_Y707_Y706C_YF]
inactive: [1] 0.898 | [2] 0.903 | [3] 0.903 | [4] 0.69 | [5] 0.905 | [6] 0.869

EAEPYYCSLRD [NPHS1_Y1139_R1140C]
inactive: [1] 0.747 | [2] 0.866 | [3] 0.712 | [4] 0.617 | [5] 0.631 | [6] 1.06

PLLLSYYLIKW [NUP160_Y773]
inactive: [1] 2.58 | [2] 1.99 | [3] 2.52 | [4] 1.92 | [5] 2.62 | [6] 2.43

PVKSEYSSIKL [NPC2_Y119_P120S]
inactive: [1] 1.13 | [2] 2.71 | [3] 0.904 | [4] 1.2 | [5] 1.01 | [6] 0.86

INMKKYCKKDY [NTN1_Y490]
inactive: [1] 1.78 | [2] 1.77 | [3] 1.62 | [4] 1.55 | [5] 1.76 | [6] 1.54

CNPRRYPVLMS [OR2T1_Y182_L180R]
inactive: [1] 1.2 | [2] 0.822 | [3] 1.08 | [4] 0.957 | [5] 1.1 | [6] 1.12

FSIDFYRVGGH [NTRK2_Y707_T704I_YF]
inactive: [1] 0.925 | [2] 1.18 | [3] 0.994 | [4] 1.13 | [5] 1.08 | [6] 1.2

RNPLRYTSILT [OR51B6_Y130_S126N]
active: [4] 4.3
inactive: [1] 1.47 | [2] 1.82 | [3] 2.32 | [5] 3.09 | [6] 1.61

CNPLRYPVLMS [OR2T1_Y182]
inactive: [1] 0.976 | [2] 0.983 | [3] 0.898 | [4] 0.923 | [5] 0.747 | [6] 1.05

QLHEHCKIHKE [NSMAF_Y626_Y626C]
inactive: [1] 3.08 | [2] 2.31 | [3] 2.84 | [4] 2.65 | [5] 2.84 | [6] 2.46

MSRDVYSTDCY [NTRK2_Y702_Y706C]
inactive: [1] 0.794 | [2] 0.747 | [3] 0.664 | [4] 0.566 | [5] 0.577 | [6] 1

LVVFEYMRHGD [NTRK1_Y591_M587V]
inactive: [1] 2.58 | [2] 2.06 | [3] 2.52 | [4] 2.86 | [5] 2.66 | [6] 1.93

RSPLRYTSILT [OR51B6_Y130]
inactive: [1] 1.76 | [2] 2.95 | [3] 2.44 | [6] 1.6
active: [4] 4.02 | [5] 3.44

CNSFRYGGGGG [NPPA_Y151]
inactive: [1] 0.669 | [2] 0.747 | [3] 0.81 | [4] 0.685 | [5] 0.801 | [6] 0.806

ISPPVYLTNEW [NRK_Y885]
inactive: [1] 1.33 | [2] 0.954 | [3] 1.29 | [4] 1.32 | [5] 1.19 | [6] 1.15

SLLLSYYLIKW [NUP160_Y773_P768S]
inactive: [2] 3.04 | [3] 3.09 | [4] 2.79 | [5] 2.77
active: [1] 3.21 | [6] 3.24

MSYDRYMAICH [OR2A5_Y123]
inactive: [1] 0.828 | [2] 1.06 | [3] 0.883 | [4] 0.775 | [5] 0.799 | [6] 1.14

DYLEKYYKFGS [NNMT_Y24]
inactive: [1] 1.42 | [2] 1.01 | [3] 1.02 | [4] 1.08 | [5] 1.3 | [6] 1.4

FLEKFYKFGSR [NNMT_Y25_YF]
inactive: [1] 0.818 | [2] 0.839 | [3] 0.67 | [4] 0.521 | [5] 0.612 | [6] 0.572

GLIPAYHRFIM [NMNAT1_Y64_V67F]
inactive: [1] 2.17 | [2] 2.08 | [3] 1.86 | [4] 1.98 | [5] 2.37 | [6] 1.67

VVSLFYGTALF [OR10C1_Y251_M246V]
inactive: [1] 1.38 | [2] 1.84 | [3] 1.08 | [4] 1.09 | [5] 1.27 | [6] 1.98

METKGYHSLPE [NR3C2_Y6]
inactive: [1] 0.588 | [2] 0.652 | [3] 0.727 | [4] 0.563 | [5] 0.627 | [6] 0.814

EASEQYLTKAS [NRCAM_Y739]
inactive: [1] 0.447 | [2] 0.401 | [3] 0.419 | [4] 0.364 | [5] 0.551 | [6] 1.62

DFLEKYFKFGS [NNMT_Y24_YF]
inactive: [1] 2.28 | [2] 1.54 | [3] 1.54 | [4] 1.47 | [5] 2.27 | [6] 1.94

MKALGYFAVVT [OPA1_Y498]
inactive: [1] 1.14 | [2] 1.37 | [3] 1.08 | [4] 1.09 | [5] 0.841 | [6] 1.34

AACQHYGVHTC [NR4A2_Y275_R278H]
inactive: [1] 1.26 | [2] 1.25 | [3] 1.08 | [4] 1 | [5] 1.37 | [6] 1.14
